About 220 (0.56%) of roughly 39,000 compounds showed activity. This is one part of the list.
These compounds were tested on Escherichia coli K-12 BW25113 (assay: relative growth (OD600 normalised to plate interquartile mean) (fraction); higher = less growth inhibition, active = 0.2 or less). Conditions: 50 µM; LB; incubation time: overnight (16-24 h).
For `COc1ccc(S(=O)(=O)N(C)C[C@H]2Oc3ccc(NS(=O)(=O)c4c(C)noc4C)cc3CC(=O)N([C@@H](C)CO)C[C@@H]2C)cc1`, the relative growth was inactive: 1.01.
With `C[C@H]1CN([C@@H](C)CO)C(=O)CCCn2cc(nn2)CO[C@H]1CN(C)C(=O)c1cc(-c2ccccc2)on1` the relative growth was inactive: 1.01.
In the case of `CC(c1cc2ccccc2s1)N(O)C(N)=O` (stereo unspecified), the relative growth is reported as inactive: 1.07.
In the case of `C[C@@H]1CCCCO[C@@H](CN(C)S(C)(=O)=O)[C@@H](C)CN([C@H](C)CO)C(=O)c2cc(NS(=O)(=O)c3cccs3)ccc2O1`, the relative growth is reported as inactive: 1.02.
With `COc1ccc(S(=O)(=O)Nc2ccc3c(c2)C(=O)N([C@H](C)CO)C[C@@H](C)[C@@H](CN(C)C(=O)C2CCCCC2)OCCCC[C@H](C)O3)cc1` the relative growth was inactive: 0.994.
`CCc1cccc2cc[nH]c12` was tested, and the relative growth was inactive: 0.997.
With `Cc1noc(C)c1NC(=O)Nc1ccc2c(c1)C(=O)N([C@H](C)CO)C[C@H](C)[C@@H](CN(C)CC1CCCCC1)OCCCC[C@@H](C)O2` the relative growth was inactive: 1.01.
With `O=C(C[C@H]1C[C@@H]2c3cc(NS(=O)(=O)c4ccc(F)cc4)ccc3O[C@@H]2[C@@H](CO)O1)NCCc1ccccc1` the relative growth was inactive: 1.
In the case of `COc1ccc(NC(=O)N(C)C[C@@H]2OCc3ccccc3-c3c(n(C)c4ccccc34)C(=O)N([C@@H](C)CO)C[C@@H]2C)c(OC)c1`, the relative growth is reported as inactive: 0.977.
For `Cc1noc(C)c1S(=O)(=O)N(C)C[C@H]1Oc2ccc(NC(=O)C3CCCCC3)cc2CC(=O)N([C@H](C)CO)C[C@H]1C`, the relative growth was inactive: 1.01.
With `Cc1noc(C)c1S(=O)(=O)N(C)C[C@@H]1Oc2ccc(N(C)C)cc2CC(=O)N([C@@H](C)CO)C[C@H]1C` the relative growth was inactive: 0.999.
`NC1CCSCC1` was tested, and the relative growth was inactive: 1.02.
For `CC1(C)OC2CC3C4CCC5=CC(=O)C=CC5(C)C4C(O)CC3(C)C2(C(=O)CO)O1` (stereo unspecified), the relative growth was inactive: 1.05.
For `CC(C)NC(=O)Nc1ccc2c(c1)C(=O)N([C@@H](C)CO)C[C@H](C)[C@@H](CN(C)Cc1ccc3c(c1)OCO3)O2`, the relative growth was inactive: 1.
With `CC(C)CC#Cc1cnc2c(c1)C(=O)N([C@@H](C)CO)C[C@H](C)[C@@H](CN(C)C(=O)c1ccc3c(c1)OCO3)O2` the relative growth was inactive: 1.01.
In the case of `C[C@H](CO)N1C[C@H](C)[C@@H](CN(C)Cc2ccc(C(=O)O)cc2)Oc2ccc(NS(=O)(=O)c3cn(C)cn3)cc2C1=O`, the relative growth is reported as inactive: 1.01.
In the case of `C[C@H]1CN([C@@H](C)CO)C(=O)Cc2cc(NC(=O)Cn3cnnn3)ccc2O[C@H]1CN(C)Cc1ccncc1`, the relative growth is reported as inactive: 0.962.
In the case of `COc1ccccc1C#Cc1cnc2c(c1)C(=O)N([C@@H](C)CO)C[C@H](C)[C@@H](CN(C)S(=O)(=O)c1cn(C)cn1)O2`, the relative growth is reported as inactive: 0.961.
`N[C@@H](COCc1ccccc1)C(=O)O` was tested, and the relative growth was inactive: 1.01.
In the case of `C[C@@H]1CCCCO[C@H](CN(C)Cc2ccccc2)[C@H](C)CN([C@@H](C)CO)C(=O)c2cc(NS(=O)(=O)c3ccccc3)ccc2O1`, the relative growth is reported as inactive: 0.988.
For `Cc1noc(C)c1NC(=O)N(C)C[C@@H]1Oc2ncc(Br)cc2C(=O)N([C@@H](C)CO)C[C@@H]1C`, the relative growth was inactive: 0.988.
In the case of `Cc1nnn2c1COC[C@H](CNCC(C)C)C2`, the relative growth is reported as inactive: 1.02.
For `COc1ccc(CN(C)C[C@@H]2OCCCC[C@@H](C)Oc3ccc(NC(=O)Nc4ccc(OC)cc4)cc3C(=O)N([C@H](C)CO)C[C@H]2C)cc1`, the relative growth was inactive: 0.976.
With `C[C@@H]1CN([C@@H](C)CO)C(=O)Cc2cc(NC(=O)Cn3cnnn3)ccc2O[C@H]1CN(C)Cc1ccc2c(c1)OCO2` the relative growth was inactive: 0.959.
`C[C@H](CO)N1C[C@H](C)[C@H](CN(C)C(=O)Nc2ccc(C(F)(F)F)cc2)Oc2c(NC(=O)Nc3ccc(F)cc3)cccc2C1=O` was tested, and the relative growth was inactive: 1.
`CC(C)NC(=O)N(C)C[C@@H]1Oc2ccc(NC(=O)CCN3CCOCC3)cc2CC(=O)N([C@@H](C)CO)C[C@@H]1C` was tested, and the relative growth was inactive: 1.01.
`O=C1CO[C@H]2CN(S(=O)(=O)c3ccccc3)C[C@@H]2N1` was tested, and the relative growth was inactive: 1.01.
For `COc1ccc(NC(=O)N(C)C[C@@H]2OCCCC[C@H](C)Oc3ccc(NC(=O)NC4CCCCC4)cc3C(=O)N([C@H](C)CO)C[C@@H]2C)cc1`, the relative growth was inactive: 1.04.
`CO[C@@H](C(=O)N(C)C[C@H]1OCc2ccccc2-c2c(n(C)c3ccccc23)C(=O)N([C@@H](C)CO)C[C@H]1C)c1ccccc1` was tested, and the relative growth was inactive: 0.995.
For `Cc1ccc(O)c(-c2cc(-c3ccc(C(C)(C)C)cc3)[nH]n2)c1`, the relative growth was inactive: 1.02.
With `C[C@H]1CCCCO[C@@H](CN(C)CC2CCCCC2)[C@@H](C)CN([C@@H](C)CO)C(=O)c2cc(NC(=O)c3ccncc3)ccc2O1` the relative growth was inactive: 0.936.
In the case of `C[C@@H]1CN([C@H](C)CO)C(=O)Cc2cc(NC(=O)Nc3cccc4ccccc34)ccc2O[C@H]1CN(C)Cc1ccc(Cl)c(Cl)c1`, the relative growth is reported as inactive: 1.01.
`C[C@H](CO)N1C[C@H](C)[C@H](CN(C)S(=O)(=O)c2cccs2)Oc2ccc(NS(C)(=O)=O)cc2CC1=O` was tested, and the relative growth was inactive: 1.01.
In the case of `C[C@@H]1CN([C@H](C)CO)C(=O)c2cc(NS(=O)(=O)c3cccs3)ccc2O[C@H]1CN(C)S(=O)(=O)c1ccccc1`, the relative growth is reported as inactive: 0.959.
In the case of `C[C@@H]1CN([C@H](C)CO)C(=O)c2cccc(NC(=O)C3CCOCC3)c2O[C@H]1CN(C)Cc1ccncc1`, the relative growth is reported as inactive: 1.05.
For `CC(C)NC(=O)Nc1ccc2c(c1)C(=O)N([C@@H](C)CO)C[C@@H](C)[C@H](CN(C)CC1CCCCC1)OCCCC[C@@H](C)O2`, the relative growth was inactive: 1.01.
For `C[C@@H]1CN([C@H](C)CO)C(=O)Cc2cc(NC(=O)Cn3cnnn3)ccc2O[C@@H]1CN(C)Cc1ccc2c(c1)OCO2`, the relative growth was inactive: 0.836.
`CCc1nc2ccc(C(=O)N3CCN(C(=O)c4ccco4)CC3)cn2c1N(C)C(=O)COc1ccccc1` was tested, and the relative growth was inactive: 1.
`COCCNC(=O)C[C@H]1CC[C@@H](NS(=O)(=O)c2ccc(C)cc2)[C@@H](CO)O1` was tested, and the relative growth was inactive: 1.01.
For `COc1ccc(-c2nc(-c3ccc(C)cc3C)cs2)cc1`, the relative growth was inactive: 1.01.
In the case of `C[C@H]1CN([C@@H](C)CO)C(=O)c2cc(NS(C)(=O)=O)ccc2O[C@H]1CN(C)C(=O)NC1CCCCC1`, the relative growth is reported as inactive: 0.993.
`COc1ccc(NC(=O)N2C[C@@H](O)COC[C@@H]3O[C@H](CC(=O)NC4Cc5ccccc5C4)CC[C@H]32)cc1` was tested, and the relative growth was inactive: 1.04.
In the case of `Cc1noc(C)c1NC(=O)Nc1cccc2c1O[C@H](CN(C)Cc1ccc(C(F)(F)F)cc1)[C@H](C)CN([C@H](C)CO)C2=O`, the relative growth is reported as inactive: 1.01.
`COc1cc2c3cc1Oc1cc(ccc1O)CC1c4c(cc(OC)c(O)c4Oc4ccc(cc4)CC3N(C)CC2)CC[N+]1(C)C.Cl.O.O.O.O.O.[Cl-]` (stereo unspecified) was tested, and the relative growth was inactive: 0.995.
With `C[C@@H]1CCCCO[C@@H](CN(C)C(=O)Nc2ccc3c(c2)OCO3)[C@H](C)CN([C@@H](C)CO)C(=O)c2cc(NC(=O)NC3CCCCC3)ccc2O1` the relative growth was inactive: 0.992.
With `C[C@@H]1CN([C@@H](C)CO)C(=O)CCCn2cc(nn2)CO[C@H]1CN(C)S(=O)(=O)c1ccc(-c2ccccc2)cc1` the relative growth was inactive: 0.969.
For `C=CCOC(=O)[C@H]1[C@@H]2C(=O)O[C@@H](c3ccccc3)[C@@H](c3ccccc3)N2[C@@H](c2ccc(OCCOC(=O)[C@H]3C[C@H]4C(=O)N[C@@H](CC(C)C)C(=O)N4[C@H]3c3ccc(O)cc3)cc2)[C@]12C(=O)Nc1ccc(I)cc12`, the relative growth was inactive: 1.
In the case of `CCOC(=O)C1=C(CN2CCOCC2)NC(c2nccs2)=N[C@@H]1c1ccc(F)cc1Br`, the relative growth is reported as inactive: 0.959.
In the case of `COCC#Cc1cnc2c(c1)C(=O)N([C@H](C)CO)C[C@H](C)[C@H](CN(C)S(=O)(=O)c1cn(C)cn1)O2`, the relative growth is reported as inactive: 0.979.
For `C[C@@H]1CN([C@H](C)CO)C(=O)c2cc(NS(=O)(=O)c3ccc(F)cc3)ccc2O[C@@H](C)CCCCO[C@@H]1CN(C)S(=O)(=O)c1ccc(Cl)cc1`, the relative growth was inactive: 1.01.
With `COCCCNC(=O)[C@@]1(Sc2ccc(C)cc2)CC(=O)N(Cc2cc(C(F)(F)F)cc(C(F)(F)F)c2)[C@@H]1c1ccc(CO)cc1` the relative growth was inactive: 0.925.
With `CCCC(=O)Nc1ccc2c(c1)OC[C@@H](C)N(Cc1ccc(-c3ccccn3)cc1)C[C@@H](C)[C@H](OC)CN(C)C2=O` the relative growth was inactive: 1.01.
For `CO[C@H]1CN(C)C(=O)c2ccc(NS(=O)(=O)c3ccccc3)cc2OC[C@@H](C)N(C(=O)NC(C)C)C[C@H]1C`, the relative growth was inactive: 0.991.
`COc1ccc(S(=O)(=O)Nc2ccc3c(c2)C(=O)N([C@H](C)CO)C[C@H](C)[C@H](CN(C)C(=O)NC(C)C)O3)cc1` was tested, and the relative growth was inactive: 1.
In the case of `C[C@@H]1CN([C@@H](C)CO)C(=O)c2cc(NC(=O)c3ccccc3)ccc2O[C@@H](C)CCCCO[C@H]1CN(C)C(=O)CCC(F)(F)F`, the relative growth is reported as inactive: 0.973.
In the case of `CO[C@H]1CN(C)C(=O)c2cc(NS(C)(=O)=O)ccc2OC[C@H](C)N(S(C)(=O)=O)C[C@@H]1C`, the relative growth is reported as inactive: 0.995.
In the case of `C[C@H](CO)N1C[C@H](C)[C@H](CN(C)C(=O)Cc2ccncc2)Oc2cc(C#Cc3ccccc3F)ccc2S1(=O)=O`, the relative growth is reported as inactive: 0.977.
`O=C(O)CSCC(=O)N1CCCCC1` was tested, and the relative growth was inactive: 1.01.
`C[C@@H]1CN([C@H](C)CO)C(=O)c2cc(NC(=O)Nc3ccc(C(F)(F)F)cc3)ccc2O[C@@H]1CN(C)Cc1ccncc1` was tested, and the relative growth was inactive: 0.99.
In the case of `C/C=C/c1ccc2c(c1)O[C@@H](CN(C)Cc1ccc(C(=O)O)cc1)[C@@H](C)CN([C@@H](C)CO)S2(=O)=O`, the relative growth is reported as inactive: 1.02.
For `NCCOB(c1ccccc1)c1ccccc1`, the relative growth was inactive: 0.954.

From the supplement of paper PMC9446081
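Further: static incubation at 37 °C against the wild-type strain, values averaged over two biological replicates.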
